From PubChem BioAssay (NCATS)
This list was built around the results that the source calls inconclusive (neither active nor inactive); the mix of calls is not that of the screen. For some assays here: Potencies of inconclusive entries are doubtful fits and often do not repeat. Activity calls are given as the source filed them. Unless noted, calls follow the shape of the dose curve; as a rule, active = well fitted curve in the direction sought with a large enough effect; inconclusive = small, poorly fitted or top-dose-only effect, or another doubt; inactive = no such curve, though single readings can be large; an effect the other way counts as inactive or inconclusive.

Legend:
[1] = P-glycoprotein substrates identified in KB-8-5-11 adenocarcinoma cell line, qHTS therapeutic library screen (AID 1346987); also: nearly all actives have a fitted effect of over 65% in size
Procedure, shortened: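 Human cervical adenocarcinoma KB-8-5-11 cells, selected in colchicine to over-express P-gp and assayed without it, were exposed for 72 h to titrated compounds. An ATP-based luminescent viability signal gave AC50.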

[2] = Primary fluorescence-based thiol-reactive (MSTI) qHTS assay for identification of artifact compounds. (AID 1845221);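 also: potency is read from the fitted curve at half-maximal effect; thiol-reactive compounds lower the probe fluorescence signal; nearly all actives have a fitted effect of over 65% in size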
Procedure, shortened: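 qHTS titration of compound; 4 uM MSTI, PBS pH 7.4, 2% DMSO; 1 h RT, dark; fluorescence 525/598 nm; normalized to Acetyl-MSTI and MSTI; 4-parameter Hill fit.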

[3] = tested on: HEK293; experiment: Cytotoxic Profiling of Annotated Libraries Using Quantitative High-Throughput Screening (AID 1296008); settings: Five cell lines viability, CellTiter-Glo ATP luminescence, 48-72 h; max response: stronger effect = lower value; also: nearly all actives have a fitted effect of over 60% in size; also: potency is read from the fitted curve at half-maximal effect; as to max response: % is scaled to controls: 0 for no effect and ±100 for the full control effect
Procedure, shortened: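 Cytotoxicity was measured as CellTiter-Glo ATP luminescence, read after 10 min at room temperature. Compound treatment of the cells lasted 48 or 72 hr at 37 degrees Celsius in a qHTS format.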

[4] = tested on: Zika virus NS2B-NS3 protease (unlinked complex); experiment: Primary screen GU Rhodamine qHTS for Zika virus inhibitors: Unlinked NS2B-NS3 protease assay (AID 1347159); also: nearly all actives have a fitted effect of over 60% in size; also: potency is read from the fitted curve at half-maximal effect; as to activity change, negative = inhibition: % is scaled to controls: 0 for no effect and ±100 for the full control effect
Procedure, shortened: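 Enzyme 25 nM in Tris-HCl pH 8.0 + 0.01% Tween 20; compounds up to 114 microM, 15 min RT dark; + Rhod110 substrate 1.5 microM; read t0 and 15 min; delta fluorescence → % inhibition → 4-parameter Hill fit.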

[5] = tested on: Zika virus NS2B-NS3 protease (linked construct); experiment: Primary screen NINDS Rhodamine qHTS for Zika virus inhibitors (AID 1347160); settings: activity change, negative = inhibition: at 57.1 µM (top of the series) unless noted; also: potency is read from the fitted curve at half-maximal effect; nearly all actives have a fitted effect of over 55% in size
Procedure, shortened: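 Enzyme (25 nM, linked NS2B-NS3) was preincubated 15 min with compound in 10 mM Tris-HCl pH 8.0, 0.01% Tween 20. Rhodamine110 substrate (1.5 microM) was then added and fluorescence read at start and after 15 min.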

[6] = Primary qHTS for inhibitors of nuclear receptor binding SET domain protein 2 (NSD2) in an isogenic RCH-ACV NSD2 p.E1099K mutant (9B) (AID 1645876); also: potency is read from the fitted curve at half-maximal effect; nearly all actives have a fitted effect of over 70% in size
[7] = Primary qHTS for inhibitors of nuclear receptor binding SET domain protein 2 (NSD2) in an RCH-ACV wild type WT cells (2C) (AID 1645877); settings: activity change, negative = cell killing: at 44.9 µM (top of the series) unless noted; also: nearly all actives have a fitted effect of over 70% in size; also: potency is read from the fitted curve at half-maximal effect; as to activity change, negative = cell killing: % is scaled to controls: 0 for no effect and ±100 for the full control effect
[8] = biological target: Cytochrome P450 2C9 (Homo sapiens) (UniProt P11712); experiment: Cytochrome P450 family 2 subfamily C member 9 (CYP2C9) small molecule antagonists: luciferase biochemical (cell-free) qHTS assay (AID 1645842; active = well fitted curve in the direction sought with a large enough effect in the repeat runs; inconclusive = weak or mixed curves; inactive = no such curve, though single readings can be large; an effect the other way counts as inactive or inconclusive; also: potency is read from the fitted curve at half-maximal effect; nearly all actives have a fitted effect of over 55% in size)
Procedure, shortened: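 P450-Glo CYP2C9 system: proluciferin substrate with enzyme in mix containing 0.4% BSA, 10 min at room temperature, then NADPH regeneration solution added and incubated 1 h at 37C. Detection reagent stopped reaction; luminescence read after 20 min as RLU.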

[9] = Primary redox qHTS assay for identification of artifact compounds. (AID 1845223); settings: Amplex Red/HRP redox cycling with DTT, fluorescence; redox activity (% of DA3003): at 53.8 µM (top of the series); also: potency is read from the fitted curve at half-maximal effect
Procedure, shortened: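 Redox-cycling detection via DTT (250 uM final) oxidation coupled to Amplex Red (25 uM)/HRP (250 mU/mL) in HBSS. 15 min preincubation plus 30 min after DTT, room temperature. Ex/Em 525/598 nm; 4-parameter Hill fit against DMSO and 10 uM DA3003.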

[10] = Confirmatory screen NINDS Rhodamine qHTS for Zika virus inhibitors (AID 1347161); also: potency is read from the fitted curve at half-maximal effect; nearly all actives have a fitted effect of over 60% in size
Procedure, shortened: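 Purified linked NS2B-NS3 protease (NS2B hydrophilic domain joined to NS3 protease by flexible linker), 25 nM in 10 mM Tris-HCl pH 8.0, 0.01% Tween 20. Compounds titrated, 15 min preincubation at room temperature; 1.5 microM Rhodamine110 substrate, FITC fluorescence change over 15 min.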

[11] = Tertiary RLuc qRT-PCR qHTS assay for Zika virus inhibitors (AID 1347169); also: potency is read from the fitted curve at half-maximal effect; nearly all actives have a fitted effect of over 55% in size
Procedure, shortened: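 Luminescence read-out: live-cell Renilla luciferase substrate applied to infected Vero cells, signal measured after 1-1.5 hrs. Cells had received compound before ZIKV-RLuc (Cambodian strain, MOI 1-2) infection and were incubated 48-72 hrs at 37 degrees C.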

[12] = biological target: Calcium and integrin-binding protein 1 (Homo sapiens) (UniProt Q99828); experiment: Primary qHTS for Identification of Calcium Integrin Binding Protein 1 (CIB1) Competitor (AID 1508620); also: potency is read from the fitted curve at half-maximal effect
Procedure, shortened: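 CIB1-GST (1 uM final) and compound incubated 15 min at room temperature before adding FITC-alphaIIb peptide tracer (100 nM final). Competition for binding read by fluorescence polarization (ex 480, em 540) after another 15 min at room temperature.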

[13] = biological target: Glutathione peroxidase 1 (Homo sapiens) (UniProt P07203); experiment: Primary qHTS Assay for Inhibitors of Recombinant Selenoprotein Glutathione Peroxidase 1 (GPX1) (AID 1845191); settings: activity, negative = inhibition: at 48.8 µM (top of the series); also: potency is read from the fitted curve at half-maximal effect; nearly all actives have a fitted effect of over 65% in size
Procedure, shortened: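 NADPH consumption tracked by fluorescence at 340/450 nm between t=0 and t=15 min, room temperature. Final mix: 10 nM GPX1, 100 nM glutathione reductase, 1 mM GSH, 0.5 mM NADPH, 0.5 mM cumene hydroperoxide, 0.01% BSA; 30 min compound–enzyme preincubation.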

[14] = tested on: Nanoluciferase (engineered Oplophorus gracilirostris luciferase); experiment: Primary Nanoluciferase (NLuc) qHTS assay for identification of artifact compounds. (AID 1845222);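 also: NLuc secreted into diluted conditioned medium of S16 cells; potency is read from the fitted curve at half-maximal effect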
Procedure, shortened: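 NLuc from S16 cell medium (1:55) plus test compounds, 15 min, room temperature. Luminescence after Nano-Glo (1:100) addition, 5 min.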
Tags tell the direction and shape of the fitted curve.

Sequence of UniProt P07203 (P07203 whole entry, looked up): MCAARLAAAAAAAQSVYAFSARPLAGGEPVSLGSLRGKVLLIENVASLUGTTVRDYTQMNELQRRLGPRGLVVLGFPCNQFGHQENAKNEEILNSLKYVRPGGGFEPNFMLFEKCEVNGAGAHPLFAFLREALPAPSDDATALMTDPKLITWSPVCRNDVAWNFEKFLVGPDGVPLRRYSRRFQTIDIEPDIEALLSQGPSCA
Sequence of UniProt P11712 (P11712 whole entry, looked up): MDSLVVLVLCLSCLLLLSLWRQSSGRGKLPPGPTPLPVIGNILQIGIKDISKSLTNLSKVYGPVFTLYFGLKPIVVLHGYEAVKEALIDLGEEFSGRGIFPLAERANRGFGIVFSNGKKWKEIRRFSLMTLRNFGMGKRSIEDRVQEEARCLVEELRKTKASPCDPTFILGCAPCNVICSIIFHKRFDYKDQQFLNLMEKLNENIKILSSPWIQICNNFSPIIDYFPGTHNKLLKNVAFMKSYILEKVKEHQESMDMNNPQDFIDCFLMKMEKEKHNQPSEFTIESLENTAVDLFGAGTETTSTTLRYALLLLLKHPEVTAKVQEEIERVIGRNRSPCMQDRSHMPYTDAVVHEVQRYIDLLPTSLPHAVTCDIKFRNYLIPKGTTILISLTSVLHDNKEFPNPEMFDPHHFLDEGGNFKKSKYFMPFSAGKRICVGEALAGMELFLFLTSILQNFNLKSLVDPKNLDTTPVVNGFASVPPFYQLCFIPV
Sequence of UniProt Q99828 (Q99828 whole entry, looked up): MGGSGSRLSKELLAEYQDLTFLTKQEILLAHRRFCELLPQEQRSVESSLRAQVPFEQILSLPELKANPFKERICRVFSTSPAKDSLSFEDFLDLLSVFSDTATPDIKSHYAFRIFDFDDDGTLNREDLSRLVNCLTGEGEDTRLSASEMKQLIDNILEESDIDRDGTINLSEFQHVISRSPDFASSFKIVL

With `C[C@@H]1O[C@@H](O[C@H]2[C@H](OC(C#N)c3ccc(O)cc3)O[C@H](CO)[C@@H](O)[C@@H]2O)[C@H](O)[C@H](O)[C@H]1O` (stereo not given in full) the Potency [1] was “inactive”, the Potency [2] was inconclusive: 9.22 µM [inhibitor, partial curve] and the outcome [3] was “inactive”.
For `C=C1C(=O)OC2CC3(C)C(CC12)C(C)=CC(O)C3OC(C)=O` (stereo not given), the Potency [4] was active: 25.1 µM, the Potency [5] was inconclusive: 11.2 µM [inhibitor, partial curve] and the Potency [6] was inconclusive: 20.1 µM [inhibitor, single point]. For the same compound, the Potency [7] was inconclusive: 17.9 µM [inhibitor, single point], the Potency [2] was active: 5.85 µM and the max response [3] was inactive: -3.84%.
In the case of `C/C=C(/C)C(=O)OC1C=C2C3C(C)C(C)C(OC(=O)C(C)C(C)O)CC3(C)CCC2(C)C2(C)CC(OC(C)=O)C3C(C)(C)C(O)C(=O)CC3(C)C12` (stereo not given), the Potency [4] is reported as inconclusive: 8.91 µM [inhibitor, partial curve, poor fit], the Potency [6] is reported as inconclusive: 6.82 µM [inhibitor, single point] and the Potency [7] is reported as inconclusive: 9.63 µM [inhibitor, single point]. The Potency [3] was inconclusive: 9.68 µM [inhibitor, single point].
In the case of `C=C(C(=O)OC)C1CCC2(C)C(O[C@@H]3O[C@H](CO)[C@@H](O)[C@H](O)[C@H]3O)CC(=O)C(C)C2C1O` (stereo not given in full), the Potency [1] is reported as “inactive”, the Potency [2] is reported as active: 4.12 µM and the outcome [3] is reported as “inactive”.
In the case of `O=C(NCC1CCN(Cc2cccc(Cl)c2)CC1)[C@@H]1CCCN(c2ncnc3c2nc2n3CCCC2)C1`, the Potency [4] is reported as “inactive”, the Potency [8] is reported as inconclusive: 37.9 µM [inhibitor, single point] and the Potency [7] is reported as “inactive”. For the same compound, the Potency [9] was inconclusive: 2.99 µM [activator, full curve, poor fit] and the Potency [3] was inconclusive: 20.6 µM [inhibitor, single point].
With `COc1cc(/C=C/c2ccccc2)c(C(=O)O)c(O)c1CC=C(C)C` the Potency [4] was active: 4.47 µM, the Potency [5] was active: 10 µM and the Potency [10] was active: 4.85 µM. For the same compound, the Potency [11] was inconclusive: 14.4 µM [inhibitor, partial curve, poor fit], the Potency [12] was inconclusive: 31.6 µM [inhibitor, partial curve, poor fit] and the Potency [13] was inconclusive: 14 µM [inhibitor, partial curve, poor fit]. For the same compound, the Potency [2] was inconclusive: 20.7 µM [inhibitor, single point], the Potency [14] was active: 13.2 µM and the max response [3] was inactive: 2.12%.
In the case of `CCCSc1nc(NC2CC2c2ccc(F)c(F)c2)c2nnn(C3CC(OCCO)C(O)C3O)c2n1` (stereo not given), the Potency [4] is reported as inconclusive: 79.4 µM [inhibitor, partial curve], the Potency [5] is reported as inconclusive: 14.1 µM [inhibitor, partial curve, poor fit] and the Potency [6] is reported as inconclusive: 29 µM [inhibitor, single point]. For the same compound, the Potency [7] was inconclusive: 20.5 µM [inhibitor, single point] and the Potency [3] was active: 18.4 µM.
